Assay results published in patent US20140363438A1, “NEUREGULIN ANTIBODIES AND USES THEREOF” (Genentech, Inc., priority 2011, published 2014).

B1: YW538.24.71: affinity matured anti-NRG1 antibody; VH SEQ ID NO: 21, VL SEQ ID NO: 26; heavy chain SEQ ID NO: 72, light chain SEQ ID NO: 73 (antibody)
heavy: EVQLVESGGGLVQPGGSLRLSCAASGFTFSGTWIHWVRQAPGKGLEWVAAITPADGSTNYADSVKGRFTISADTSKNTAYLQMNSLRAEDTAVYYCATYMFAMDYWGQGTLVTVSS[skipping human IgG1 constant region]
light: DIQMTQSPSSLSASVGDRVTITCRASQDVSISLAWYQQKPGKAPKLLIYGASNLESGVPSRFSGSGSGTDFTLTISSLQPEDFATYYCQQHYTLPFTFGQGTKVEIKRTVAAPSVFIFPPSDEQLKSGTASVVCLLNNFYPREAKVQWKVDNALQSGNSQESVTEQDSKDSTYSLSSTLTLSKADYEKHKVYACEVTHQGLSSPVTKSFNRGEC
modifications: Heavy chain; Light chain
B2: YW526.90.28: affinity matured anti-NRG1 antibody; VH SEQ ID NO: 63, VL SEQ ID NO: 53; heavy chain SEQ ID NO: 74, light chain SEQ ID NO: 75 (antibody)
heavy: EVQLVESGGGLVQPGGSLRLSCAASGFTFSDIAMSWVRQAPGKGLEWVSWIYPSGGNTYYADSVKGRFTISADTSKNTAYLQMNSLRAEDTAVYYCARSYILSQKSATWAFDYWGQGTLVTVSS[skipping human IgG1 constant region]
light: DIQMTQSPSSLSASVGDRVTITCRASQSISSYLAWYQQKPGKAPKLLIYGASSRASGVPSRFSGSGSGTDFTLTISSLQPEDFATYYCQQSYSTPITFGQGTKVEIKRTVAAPSVFIFPPSDEQLKSGTASVVCLLNNFYPREAKVQWKVDNALQSGNSQESVTEQDSKDSTYSLSSTLTLSKADYEKHKVYACEVTHQGLSSPVTKSFNRGEC
modifications: Heavy chain; Light chain

Columns and labels:
[1] = molecular target: EGF (Homo sapiens, UniProt P01133); experiment: Specificity ELISA, binding to EGF
Sequence of EGF (P01133 971-1023 limits assumed, species assumed): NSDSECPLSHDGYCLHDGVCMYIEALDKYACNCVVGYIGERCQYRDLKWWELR
Description: (§1) To confirm antibody specificity, binding of the antibodies to the related EGF family ligands, EGF, HB-EGF, and Betacellulin (BTC) was assessed.

[2] = molecular target: T1, BTC (Homo sapiens, UniProt P35070); experiment: BTC induced HER4 phosphorylation, cell-based, Western blot
T1 sequence (P35070 32-178): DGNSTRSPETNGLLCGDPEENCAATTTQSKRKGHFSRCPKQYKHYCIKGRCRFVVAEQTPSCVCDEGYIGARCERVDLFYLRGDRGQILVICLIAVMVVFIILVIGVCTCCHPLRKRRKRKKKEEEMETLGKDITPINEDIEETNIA
Description: (§2) NRG1, HB-EGF and BTC are also ligands for the HER4 receptor. Therefore, the ability of YW538.24.71 and YW526.90.28 to inhibit BTC and HB EGF-induced HER4 phosphorylation was analyzed in a cell-based assay.

[3] = tested on: NRG1 autocrine signaling; experiment: NRG1 autocrine signaling, Western blot, human cells; format: cell-based; details: 0.1% FBS, 48 hours
Description: (§3) Cells were grown in media containing 0.1% FBS+antibodies as indicated for 48 hours. Cells were washed 3 times with 1×PBS and lysed with RIPA buffer containing protease and phosphatase inhibitors. Lysates were collected, and processed for western blotting.

[4] = molecular target: T2, Betacellulin (BTC) (Homo sapiens, UniProt P35070); experiment: Specificity ELISA, binding to Betacellulin
T2 sequence (P35070 32-178): T1 sequence (P35070 32-178)
Description: as §1

[5] = tested on: LKPH2 cells; experiment: NSCLC LKPH2 tumor growth in athymic nude mice; format: in vivo, mouse; details: with gemcitabine 100 mg/kg every four days for four doses, FIG. 23
Description: The ability of anti-NRG1 antibodies to inhibit tumor growth in a mouse model system for non-small cell lung cancer (NSCLC) was determined Athymic nude mice were inoculated subcutaneously into the right flank with a) 20 million H596 cells or b) 2 million LKPH2 cells. When tumors reached a mean of 150-250 mm3 animals were grouped out into treatment groups with equivalent mean starting tumor volumes. Animals were treated as follows:
Group 1: Vehicle: Anti-ragweed, 20 mg/kg, IP qwk for study duration+Carboplatin buffer, IP q4d×5+Paclitaxel buffer, IV q4d x 5. Group 2: Y538.24.71: Y538.24.71, 20 mg/kg, IP qwk for study duration+Carboplatin buffer, IP q4d×5+Paclitaxel buffer, IV q4d×5. Group 3: Chemo+Ragweed: Anti-ragweed, 20 mg/kg, IP qwk for study duration+Carboplatin, 60 mg/kg IP q4d×5+Paclitaxel 20 mg/kg, IV q4d x 5. Group 4: Chemo+538.24.71: 538.24.71, 20 mg/kg, IP qwk for study duration+Carboplatin, 60 mg/kg IP q4d×5+Paclitaxel 20 mg/kg, IV q4d x 5.
Tumor Growth curves and a Kaplan-Meier curve were generated as described in Example 15. FIGS. 21 and 22.
In this study, gemcitabine, at 100 mg/kg, was administered to the mice every four days for four doses. Tumor Growth curves and Kaplan-Meier curve were generated as in Example 15.

[6] = tested on: NRG1 autocrine signaling; experiment: NRG1 autocrine signaling, Western blot, mouse cells; format: cell-based; details: 0.1% FBS, 48 hours
Description: as §3

[7] = molecular target: T3, HB-EGF (Homo sapiens, UniProt Q99075); experiment: Specificity ELISA, binding to HB-EGF
T3 sequence (Q99075 63-148 limits assumed, species assumed): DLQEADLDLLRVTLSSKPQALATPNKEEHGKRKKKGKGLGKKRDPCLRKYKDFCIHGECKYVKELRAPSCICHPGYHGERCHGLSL
Description: as §1

[8] = molecular target: T3, HB-EGF; experiment: HB-EGF induced HER4 phosphorylation, cell-based, Western blot
Description: as §2

[9] = tested on: NRG1-B; experiment: NRG1-B induced HER4 phosphorylation, cell-based, Western blot
Description: as §2

| Molecule | binding to EGF [1] | BTC induced HER4 phosphorylation [2] | phospho-AKT levels [3] | phospho-Her3 levels [3] | binding to Betacellulin (BTC) [4] | response of LKPH2 tumors to gemcitabine treatment [5] | phospho-AKT levels [6] | phospho-Her3 levels [6] | binding to HB-EGF [7] | HB-EGF induced HER4 phosphorylation [8] | NRG1-B induced HER4 phosphorylation [9] |
| --- | --- | --- | --- | --- | --- | --- | --- | --- | --- | --- | --- |
| B1 | no detectable binding | no effect | dose-dependent decreases | dose-dependent decreases | no detectable binding | enhanced the response | dose-dependent decreases | dose-dependent decreases | no detectable binding | no effect | potentially inhibited |
| B2 | no detectable binding |  |  |  | no detectable binding |  |  |  | no detectable binding |  |  |
